# Data from the antibiotic and cytotoxicity screens of Wong et al. (2023).
# The list shows a part of the results.
# Columns and labels:
# HSkMC = human skeletal muscle cells; test: cytotoxicity call (relative viability < 0.9); settings: 10 µM
# HepG2 = test: cytotoxicity call (relative viability < 0.9); settings: 10 µM
# S. aureus RN4220 = test: growth inhibition call (relative growth <= 0.2); settings: 50 µM
SMILES,cytotoxicity call (HSkMC),cytotoxicity call (HepG2),growth inhibition call (S. aureus RN4220)
Cc1c2oc3c(C)ccc(C(=O)N[C@@H]4C(=O)N[C@H](C(C)C)C(=O)N5CCC[C@H]5C(=O)N(C)CC(=O)N(C)[C@@H](C(C)C)C(=O)O[C@@H]4C)c3nc-2c(C(=O)N[C@@H]2C(=O)N[C@H](C(C)C)C(=O)N3CCC[C@H]3C(=O)N(C)CC(=O)N(C)[C@@H](C(C)C)C(=O)O[C@@H]2C)c(N)c1=O,active,active,inactive
COC(=O)Cc1cc(=O)n(-c2ccccc2)[nH]1,inactive,inactive,inactive
C[C@@H]1CN([C@@H](C)CO)C(=O)c2cc(NS(=O)(=O)c3ccc(Cl)cc3)ccc2O[C@@H](C)CCCCO[C@@H]1CN(C)C(=O)NC1CCCCC1,inactive,inactive,inactive
C[C@@H]1CN([C@@H](C)CO)C(=O)Cc2cc(NC(=O)Nc3cccc4ccccc34)ccc2O[C@H]1CN(C)Cc1ccc(Oc2ccccc2)cc1,inactive,inactive,inactive
COC(=O)C1=C(N)N(c2cccc(C(F)(F)F)c2)C2=C(C(=O)CC(C)(C)C2)[C@@H]1c1ccc(OC)cc1,inactive,inactive,inactive
Cc1noc(C)c1NC(=O)N(C)C[C@H]1Oc2ccc(NC(=O)Nc3cccc4ccccc34)cc2CC(=O)N([C@H](C)CO)C[C@H]1C,inactive,inactive,inactive
Cc1noc(C)c1S(=O)(=O)Nc1ccc2c(c1)C(=O)N([C@@H](C)CO)C[C@H](C)[C@@H](CN(C)S(=O)(=O)c1cn(C)cn1)OCCCC[C@@H](C)O2,inactive,inactive,inactive
COc1ccc(NC(=O)Nc2ccc3c(c2)C(=O)N([C@H](C)CO)C[C@@H](C)[C@@H](CN(C)S(=O)(=O)c2ccccc2)OCCCC[C@H](C)O3)cc1,inactive,inactive,inactive
CC(C)NC(=O)Nc1cccc2c1O[C@@H](CN(C)Cc1ccc3c(c1)OCO3)[C@H](C)CN([C@@H](C)CO)C2=O,inactive,inactive,inactive
C[C@@H]1CN([C@H](C)CO)C(=O)c2cccc(NS(=O)(=O)c3ccccc3)c2O[C@@H]1CN(C)S(C)(=O)=O,inactive,inactive,inactive
CCC(CCC(C)C1CCC2C3CC=C4CC(OC(C)=O)CCC4(C)C3CCC12C)C(C)C (stereo not given),inactive,inactive,inactive
Cc1noc(C)c1NC(=O)N(C)C[C@@H]1OCCCC[C@@H](C)Oc2ccc(NC(=O)Nc3cccc4ccccc34)cc2C(=O)N([C@@H](C)CO)C[C@H]1C,inactive,inactive,inactive
Cc1noc(C)c1S(=O)(=O)N(C)C[C@H]1OCCCC[C@H](C)Oc2ccc(NS(=O)(=O)c3cn(C)cn3)cc2C(=O)N([C@H](C)CO)C[C@@H]1C,inactive,inactive,inactive
C[C@H](CO)N1C[C@H](C)[C@H](CN(C)C(=O)NC2CCCCC2)OCCCC[C@H](C)Oc2ccc(NC(=O)Nc3ccc(C(F)(F)F)cc3)cc2C1=O,inactive,active,inactive
Cc1ccc(S(=O)(=O)N(C)C[C@H]2OCCCC[C@H](C)Oc3ccc(NS(C)(=O)=O)cc3C(=O)N([C@H](C)CO)C[C@H]2C)cc1,inactive,inactive,inactive
C[C@@H]1CN([C@H](C)CO)C(=O)c2cccc(NC(=O)c3cnccn3)c2O[C@H]1CN(C)S(C)(=O)=O,inactive,inactive,inactive
CN1CCN(C(=O)C[C@@H]2CC[C@@H]3[C@H](COC[C@H](O)CN3C(=O)C3CCCC3)O2)CC1,inactive,inactive,inactive
C[C@H](NC(=O)[C@@H]1N[C@@H]2c3ccc(-c4ccc(C(=O)N(C)C)cc4)c(=O)n3C[C@@H]2[C@H]1CO)c1ccccc1,inactive,inactive,inactive
COc1cccc(NC(=O)N(C)C[C@H]2Oc3ncc(Br)cc3C(=O)N([C@H](C)CO)C[C@H]2C)c1,inactive,inactive,inactive
C[C@H](CO)N1C[C@H](C)[C@H](CN(C)S(=O)(=O)c2ccc(F)cc2)Oc2ccc(N(C)C)cc2CC1=O,inactive,inactive,inactive
